This is one part of the list.
tested on: PfAP2-HC AP2 domain (GST-tagged); assay: gcPBM binding intensity (ln(normalized median fluorescence intensity)); higher = stronger DNA binding
Method in brief: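 The highest Masliner-normalised natural-log median intensity across replicate spots of either probe orientation is reported as binding intensity. GST-tagged P. falciparum DNA-binding domains expressed in E. coli were applied for 1 h to an Agilent 4 × 180k array of primer-extended double-stranded 36-bp intergenic genomic probes plus negative controls, and bound protein was detected with Alexa488 anti-GST antibody and scanned at 488 nm.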

| Sequence | gcPBM binding intensity (ln) |
| --- | --- |
| ACCATATAAATAAACACACACACACCGATATATATA [CACACA_site5310] | 10.6 |
| AAAAAACAAAAAAAAAAAAAAATAATACAATATAAT [CACACA_negctrl_site1630] | 9.56 |
| GCACAACATATATTATCACACACATATATATATATA [CACACA_site8619] | 10.6 |
| GTTTTTAGTATTTTTTGTACTTAATACATAGCCTTA [XGTACX_site7318] | 9.61 |
| AATTGAAAAATATATAAGAAGAAATATATATATGTT [GTGCAC_negctrl_site97] | 9.71 |
| AACACGCGCGGACACACACACACACCCACATATATA [CACACA_site5252] | 11.3 |
| TTAATATGAAATAAATGTACATAATACATAATAAAA [XGTACX_site6194] | 9.76 |
| TTTTCTTCATAAATGCTGCACTGGTTTAAGCATGAT | 9.3 |
| AAATAGAAGAAATATGCACACATACATTGAAATGTT [CACACA_site7996] | 9.78 |
| TTTATTAATAAACACACACACACACCCAAAATAAAA [CACACA_site7966] | 11 |
| AAAGAAAAAAAAATTACACACATATATTATATATAT [CACACA_site3211] | 9.73 |
| CCTTAATATTTTTGAAGTACATATTTATTTTACAAG [XGTACX_site3049] | 9.5 |
| ATTTATATCTCCATATGTTCAAAACTTTCACAAATA [TGCATGCA_negctrl_site108] | 9.3 |
| TATTAACAAATTTATGTGCACTGAGGACAAATATAT | 9.73 |
| AATATAAATTAATTTACACACTAAAAAATATATATA [CACACA_site3778] | 9.77 |
| AAAATAAGTAATTACTAATATATAAATTAATAATTA [CACACA_negctrl_site1602] | 9.61 |
| TTTTAATTAGCTAGACGTACAATAATATACAAATAT [XGTACX_site6068] | 9.5 |
| CATATGTAGGGAACAATATAATATGCTTTGAATATG [GTGCAC_negctrl_site524] | 9.57 |
| ATTTTTTTAAGATAAGAAAAATAAAGTGTGGATATT [XGTACX_negctrl_site476] | 9.39 |
| AGCACACAAAAAAAAAAAAAAAAAAAAAAAGGAATG [GTGCAC_negctrl_site73] | 9.67 |
| TATGTATTCATATGTTGTACATTATATATAATAAGT [XGTACX_site6589] | 9.68 |
| AAATCAGAACCTATTTGTACATATACAAAAATGATT [XGTACX_site2421] | 9.62 |
| ATTATGTATACATAAACACACATATTTATAAAAAAA [CACACA_site6261] | 9.82 |

| Sequence | gcPBM binding intensity (ln) |
| --- | --- |
| ATATATTTATATATATGTACATATTATGTTAAGAAA [XGTACX_site1111] | 9.69 |
| TTCCTTATTATTATTTTACACACGTCCTAATAAGAG [CACACA_site8364] | 9.88 |
| GCTTGTACATTTTTAAAAAATGACTTCGAAAGGAAT [CACACA_negctrl_site453] | 9.41 |
| TTTATGCATAGAGAAACATGCAAGAAAGATGCAAAA [TGCATGCA_site726] | 9.63 |
| ATACTCACGTGACACACACACAATATAAATAAATAT [CACACA_site7862] | 10.6 |
| TGTATATATATCTCAGTGCATTGCAAATTAAAAATT [GTGCAC_site9646] | 9.6 |
| TATAATAATCTAATCTGTAGTTTTTTTTTTTTTTTT [CACACA_negctrl_site1206] | 9.37 |
| GGCTTTTTTTAATATGCACACATATATTTTATATAT [CACACA_site8647] | 10 |
| AAAAAAAAACAGAAAACACACAAATTATCTTATAAT [CACACA_site4326] | 10 |
| TTTCTAAATAATTATAATGAATCTGCAAACAAGCAT [XGTACX_negctrl_site391] | 9.05 |
| ATAAAAATAAACATACGTACTTACACGAATATACAT [XGTACX_site5989] | 9.77 |
| CTTGAAAAAATAAAAACACACAATGTGTTTTTGAAT [CACACA_site3283] | 9.68 |
| TTAGATTTAAATATCATACACACTTTATATATAATA [CACACA_site959] | 9.57 |
| ATATTACTATATTATTGTACGTTAAAAAAAAAAAAT [XGTACX_site8734] | 9.55 |
| AATAAATAAATAAATAAATATATATATATATATATA [GTGCAC_negctrl_site224] | 9.58 |
| TTATATTAAAAAAGATGTACGTTTAGGAAAAATATA [XGTACX_site7456] | 9.34 |
| AAATTCACAATGTTTGGTACACATAAAAAAAAAAGA [XGTACX_site7109] | 9.66 |
| AAAAATTTTTTTTTTTTTTTAAATAATAAAAATGAA [CACACA_negctrl_site1435] | 9.21 |
| TATTATTATTTTATGGTGCAAAAAAAAAAAAAAAAA | 8.83 |
| AACATACGACAATACGCACACATATCTGTACATATT [CACACA_site5115] | 10.2 |
| TTTATATATTTTGTCGTGCACATTTGGAAAATTACA [GTGCAC_site9776] | 9.59 |
| TATATATTTATTTATAGTACACTATTTATGAAAACC [XGTACX_site3062] | 9.43 |
| CATTATTATTAACATACACACGTGTTATATACCCCC [CACACA_site9365] | 10.1 |

| Sequence | gcPBM binding intensity (ln) |
| --- | --- |
| TAACATAAATTTAGGAGTACACTTTTTATACATACA [XGTACX_site4066] | 9.62 |
| TATCACTATAGACAAGCATGCATATGTACTAATATC [TGCATGCA_site1020] | 9.7 |
| TTTATATTTATTGTTGTGCACAGAACCATATTCGTT | 9.9 |
| AATAAAATGGAATACGGTACACATAATCCTAAAATG [XGTACX_site926] | 9.81 |
| ATATTATAAAATAAAAGTACACAATTATATATATAT [XGTACX_site8812] | 9.75 |
| TATTTTTAAAATTAAATGAATAAATAAATAAATATA [XGTACX_negctrl_site553] | 9.39 |
| ATATATATCGGACACACACACATGTTTTAAAACTAT [CACACA_site4218] | 10.8 |
| CTTTTATTCAAAAGATGTACTTAAATATATATCTAA [XGTACX_site4326] | 9.39 |
| TGCAGTCTGGAGAAACGTACACAGTATCTGGTAACA [XGTACX_site2014] | 9.48 |
| ATGTGTATAATTAAATGTACATATATATATATATAT [XGTACX_site829] | 10.2 |
| ATTTGAAATTGGTAGACACACAATAAAATATCAAAA [CACACA_site447] | 9.7 |
| AAAAAGTTATTATGAACACACATTTATTATAGTCAT [CACACA_site6838] | 9.74 |
| CATATAAATATTTGTGCACACAATTATTAATAATTA [CACACA_site3884] | 9.83 |
| CACATTATGTATCATACACACAAATAAATATATAAT [CACACA_site4505] | 9.84 |
| ATATTATTAATATATTGTACTTTTTTTTTTTTATTT [XGTACX_site496] | 9.64 |
| ATATGTATTTAATTCACACAAAAATATGTTCATGAA [CACACA_site5223] | 9.49 |
| AATTTAATTATGGTAACACACAATAAAAAAAAATCT [CACACA_site568] | 9.71 |
| TTTTTTTTTTTCTTTGCACACAGATAACTTGAAATT [CACACA_site2184] | 9.79 |
| ATATTTTATTTTCCATGTACACAAAAAAAAAAAAAA [XGTACX_site8327] | 9.27 |
| AAGAAAATAAAGGATATGAAAAATAAAAAAAAGGAG [TGCATGCA_negctrl_site265] | 9.81 |
| AGGTTAAAAATAAATACACACATTTTATGGGTGTAT [CACACA_site4702] | 9.71 |
| TGAAAATAATTATAGGTGCATAAACATACGGATCTT | 9.79 |
| TTTTTTTTGTATTTTTCACACACTCTCTATCTCTCT [CACACA_site8655] | 9.98 |

| Sequence | gcPBM binding intensity (ln) |
| --- | --- |
| TATAAAAATAATATTACACACATGTAAAATGCCCGT [CACACA_site7522] | 9.94 |
| ATATATTAATAATAAATTAAAAGGAGTAACATTTTC [CACACA_negctrl_site320] | 9.6 |
| TAATATATAAGAAACAAAAAAAAATAAAAATATATA [TGCATGCA_negctrl_site153] | 9.62 |
| TAAAATAATTCGTAACGTACATATGTAATATAATAT [XGTACX_site6126] | 9.87 |
| CGCATACACGGACACACACACACATATATATATATA [CACACA_site4520] | 10.9 |
| AAAAAAAAAAAACACACACACACACTAATATATAAA [CACACA_site8302] | 10.9 |
| GGTATAAAGAAATTTTGTACATATTTCTCCCTTTAA [XGTACX_site1874] | 9.41 |
| ATTTCTCAATCGTAATGTACAAAAAAAAGGAAAAAA [XGTACX_site1193] | 9.47 |
| TTATATAGATGGAATAGTACAGTATATATATATATA [XGTACX_site8755] | 9.68 |
| TAAATATATATCATCACACACACATACATAAATATA [CACACA_site183] | 10.7 |
| AGCTCTATATTTTACACATGCGATTTGGATATATAT [TGCATGCA_site105] | 9.84 |
| CCTTTATATTATAAAAGTACATAATATTTTATAAGT [XGTACX_site1629] | 9.4 |
| ATATTACAACGTAACGAATATTTCATAAATTCTTAA [CACACA_negctrl_site770] | 9.45 |
| TACTGTATTATAATTATGATTGACGAAATTAAAAAT [GTGCAC_negctrl_site358] | 9.36 |
| ATTAGAAAAAAGATAGCACACACGGCCCAATATATA [CACACA_site2417] | 10.1 |
| TGAAATTTATAATAGTGTACAAAGAAAAAAAAAAAA [XGTACX_site4965] | 9.64 |
| AAGGTTATATAAAAAAGTACGCATAAGATGTTGTTC [XGTACX_site807] | 9.77 |
| CAATATAAAATAAAATGTACTTGTAGTAAAGGGATA [XGTACX_site1452] | 9.93 |
| ATAAAGGTTTTCCAAGCATGCCACATAGTGACATAC [TGCATGCA_site193] | 9.48 |
| GATGAGGACAAACACACACACATAAGTTGATACATA [CACACA_site3424] | 10.3 |

Source: the supplement of paper PMC11417369
